These results are taken from ChEMBL document CHEMBL1157539, “Thousands of chemical starting points for antimalarial lead identification” (Nature, 2010).

Whole data set: some 13,000 compounds, median “IFI” near 4, cut for the highest 2% near 17. The list shows a part of the results.

The experiment in a line: GSK_TCMDC: Inhibition Frequency Index (IFI). The number of non-kinase HTS assays where a compound showed > 50 % inhibition, expressed as a percentage of the number of such assays in which the compound was tested (-0 is zero). In kind it is functional.
The molecule `N=C1N=C(N)NC2(CCCCC2)N1OCCOc1ccc(Cc2ccccc2)cc1` displayed an IFI of 27.6%. Next, `COc1cccc(CNC[C@@H](O)[C@H](Cc2ccccc2)NC(=O)c2cc(C(C)C)cc(N3CCCC3=O)c2)c1`: 2.86%; `Cc1cccc2nc(-c3ccc(-c4ccc(CNCCCNS(C)(=O)=O)cc4)s3)[nH]c12`: 2.97%; `CSc1nccc(-c2ccc3ccnc(N)c3c2)n1`: 2.7%.

For `Cc1cnc2cc3c(cc2c1N1CCN(C)CC1)NCC3`, the IFI was determined as 0.73%. In turn, `CN(C)Cc1ccc(-c2cccc(NC(=O)c3cccc(Cl)c3)c2)cc1` returned an IFI of 2.91%. The same measure for `O=C(/C=C/c1ccc(Cl)c(Cl)c1)NCCCCCN1CCC(NC(=O)Nc2ccc(OC(F)F)cc2)CC1`: 6.04%.

For the molecule `COc1ccc(-c2cccc(NC(=O)c3ccc(C#N)cc3)c2)cc1CN(C)CCN(C)C`, the IFI amounted to 6.58%. In turn, `N#Cc1ccc2c(c1)CCN(CCC1CCC(NC(=O)/C=C/c3cccc4ccccc34)CC1)CC2` (stereo unspecified) gave an IFI of 0.71%. Regarding `CN(CCCN)CCCNc1ccnc2cc(Cl)ccc12`, the IFI stood at 2.94%. `COc1ccc2cc(C=NNc3nc4ccccc4[nH]3)c(Cl)nc2c1` registered an IFI of -0%. Next, `c1ccc(CCNCc2ccc(-c3ccc(CNc4ccc5ncccc5c4)cc3)cc2)cc1`: 11.8%. Next, `Cc1cc(F)ccc1N(c1nc(-c2cc(Cl)ccc2Cl)cs1)C1CCNC1` (stereo unspecified): 21.4%. The same measure for `Cc1cc(OCCCNc2nc(NCCc3ccc(O)cc3)nc(N3CCNCC3)n2)c(Cl)c(C)c1Cl`: 18.5%; for `CCOc1ccccc1NC(=O)C(Sc1nc(C)cc(C)c1C#N)c1ccccc1` (stereo unspecified): 4.08%. Molecule `CC(=O)c1ccc2cc(C(=O)NC3CCC(CCN4CCc5ccc(-c6noc(C)n6)cc5CC4)CC3)[nH]c2c1` (stereo unspecified) returned an IFI of 0.74%. The molecule `c1ccc(C2CCC(N3CCC(N4CCN(c5ccccc5)CC4)CC3)CC2)cc1` (stereo unspecified) displayed an IFI of 2.38%. `Cc1nc2ccc(F)cc2n1C1CCN(C(=O)Cc2ccc(F)c(F)c2)CC1` gave an IFI of -0%. Take `N=C(N)c1ccc(NC(=O)Cc2nc3cc(C(=N)N)ccc3[nH]2)cc1`: the IFI is -0%. The molecule `Cc1cccc2nc(-c3ccc(-c4ccc(CN5CCCC(O)C5)cc4)s3)[nH]c12` (stereo unspecified) displayed an IFI of 2.82%. Next, `NC1=NC(c2ccccc2)N(c2ccc(Cl)c(Cl)c2)C(N)=N1` (stereo unspecified): 2%. As for `O=C(Nc1ccc(-c2cccc(-c3nc4cc(C(F)(F)F)ccc4[nH]3)c2)cc1)c1csnn1`, the IFI is 1.82%. Molecule `O=C(Nc1ccc(Cl)cc1)c1cc(Cl)cc2nc(C(F)(F)F)[nH]c12` gave an IFI of 27.1%.

Molecule `Cc1cc(Cl)c(S(=O)(=O)NC(C)(C)C)cc1OCC(=O)NC1CCCCC1` displayed an IFI of 0%.

The molecule `Cc1cc(N(C)C)nc(Nc2ccc(NC(=O)COc3ccccc3)cc2)n1` had an IFI of 11.8%.

In turn, `COCCn1c(-c2cccc(Cl)c2)nn(-c2ccc([N+](=O)[O-])cc2Cl)c1=S` showed an IFI of 1.35%.
